# Source: publication PMC9911399, “Two distinct binding modes provide the RNA-binding protein RbFox with extraordinary sequence specificity”
# Substitutions are numbered along the chain they refer to; changes in the protein carry UniProt numbers. Some of the results follow.
# T1: RBFOX1 RRM RbFoxmut (Fox-RRM*) (Homo sapiens, UniProt Q9NWB1 109-208, R118D;E147R;N151S;E152T)
# T1 sequence: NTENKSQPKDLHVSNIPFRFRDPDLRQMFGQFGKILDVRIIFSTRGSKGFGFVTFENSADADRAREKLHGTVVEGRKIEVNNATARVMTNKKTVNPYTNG
# B1: AUGUCUU (DNA:RNA)
# RNA: GGGAGACCGGAAUUCAGAUUGUCCAUGUCUUUUAAAUCCCGUCGUAGCCACCA
# DNA 1: CAATCTGAATTCCGGTCTCCC
# DNA 2: TGGTGGCTACGACGGGATT
# B2: GGAAGCG (DNA:RNA)
# RNA: GGGAGACCGGAAUUCAGAUUGUCCGGAAGCGUUAAAUCCCGUCGUAGCCACCA
# DNA 1: CAATCTGAATTCCGGTCTCCC
# DNA 2: TGGTGGCTACGACGGGATT
# B3: GUCCGGG (DNA:RNA)
# RNA: B2 RNA with G26U, A27C, A28C, C30G
# DNA 1: CAATCTGAATTCCGGTCTCCC
# DNA 2: TGGTGGCTACGACGGGATT
# B4: AGGGUCU (DNA:RNA)
# RNA: B1 RNA with U26G, U28G, C29U, U30C
# DNA 1: CAATCTGAATTCCGGTCTCCC
# DNA 2: TGGTGGCTACGACGGGATT
# B5: CGGGGCG (DNA:RNA)
# RNA: B2 RNA with G25C, A27G, A28G
# DNA 1: CAATCTGAATTCCGGTCTCCC
# DNA 2: TGGTGGCTACGACGGGATT
# B6: UAAGUAA (DNA:RNA)
# RNA: B2 RNA with G25U, G26A, A28G, G29U, C30A, G31A
# DNA 1: CAATCTGAATTCCGGTCTCCC
# DNA 2: TGGTGGCTACGACGGGATT
# B7: CCAAGCU (DNA:RNA)
# RNA: B2 RNA with G25C, G26C, G31U
# DNA 1: CAATCTGAATTCCGGTCTCCC
# DNA 2: TGGTGGCTACGACGGGATT
# B8: UGCCGAU (DNA:RNA)
# RNA: B2 RNA with G25U, A27C, A28C, C30A, G31U
# DNA 1: CAATCTGAATTCCGGTCTCCC
# DNA 2: TGGTGGCTACGACGGGATT
# B9: AGUUGGU (DNA:RNA)
# RNA: B1 RNA with U26G, G27U, C29G, U30G
# DNA 1: CAATCTGAATTCCGGTCTCCC
# DNA 2: TGGTGGCTACGACGGGATT
# B10: AUUUCUA (DNA:RNA)
# RNA: B1 RNA with G27U, U31A
# DNA 1: CAATCTGAATTCCGGTCTCCC
# DNA 2: TGGTGGCTACGACGGGATT
# B11: UCUGGCC (DNA:RNA)
# RNA: B2 RNA with G25U, G26C, A27U, A28G, G31C
# DNA 1: CAATCTGAATTCCGGTCTCCC
# DNA 2: TGGTGGCTACGACGGGATT
# B12: UGCAAAG (DNA:RNA)
# RNA: B2 RNA with G25U, A27C, G29A, C30A
# DNA 1: CAATCTGAATTCCGGTCTCCC
# DNA 2: TGGTGGCTACGACGGGATT
# B13: AGUAAAA (DNA:RNA)
# RNA: B2 RNA with G25A, A27U, G29A, C30A, G31A
# DNA 1: CAATCTGAATTCCGGTCTCCC
# DNA 2: TGGTGGCTACGACGGGATT
# B14: CGACCGC (DNA:RNA)
# RNA: B2 RNA with G25C, A28C, G29C, C30G, G31C
# DNA 1: CAATCTGAATTCCGGTCTCCC
# DNA 2: TGGTGGCTACGACGGGATT
# B15: AUAGGGA (DNA:RNA)
# RNA: B1 RNA with G27A, U28G, C29G, U30G, U31A
# DNA 1: CAATCTGAATTCCGGTCTCCC
# DNA 2: TGGTGGCTACGACGGGATT
# B16: UGUCCUA (DNA:RNA)
# RNA: B1 RNA with A25U, U26G, G27U, U28C, U31A
# DNA 1: CAATCTGAATTCCGGTCTCCC
# DNA 2: TGGTGGCTACGACGGGATT
# B17: UGCGGGC (DNA:RNA)
# RNA: B2 RNA with G25U, A27C, A28G, C30G, G31C
# DNA 1: CAATCTGAATTCCGGTCTCCC
# DNA 2: TGGTGGCTACGACGGGATT
# B18: GCCUACA (DNA:RNA)
# RNA: B2 RNA with G26C, A27C, A28U, G29A, G31A
# DNA 1: CAATCTGAATTCCGGTCTCCC
# DNA 2: TGGTGGCTACGACGGGATT
# B19: CAAUUUU (DNA:RNA)
# RNA: B1 RNA with A25C, U26A, G27A, C29U
# DNA 1: CAATCTGAATTCCGGTCTCCC
# DNA 2: TGGTGGCTACGACGGGATT
# B20: UGAUGAU (DNA:RNA)
# RNA: B2 RNA with G25U, A28U, C30A, G31U
# DNA 1: CAATCTGAATTCCGGTCTCCC
# DNA 2: TGGTGGCTACGACGGGATT
# B21: AGUCGUC (DNA:RNA)
# RNA: B1 RNA with U26G, G27U, U28C, C29G, U31C
# DNA 1: CAATCTGAATTCCGGTCTCCC
# DNA 2: TGGTGGCTACGACGGGATT
# B22: UAUAGCU (DNA:RNA)
# RNA: B2 RNA with G25U, G26A, A27U, G31U
# DNA 1: CAATCTGAATTCCGGTCTCCC
# DNA 2: TGGTGGCTACGACGGGATT
# B23: UGACUAA (DNA:RNA)
# RNA: B2 RNA with G25U, A28C, G29U, C30A, G31A
# DNA 1: CAATCTGAATTCCGGTCTCCC
# DNA 2: TGGTGGCTACGACGGGATT
# B24: GCACUUC (DNA:RNA)
# RNA: B2 RNA with G26C, A28C, G29U, C30U, G31C
# DNA 1: CAATCTGAATTCCGGTCTCCC
# DNA 2: TGGTGGCTACGACGGGATT
# B25: AGCACAU (DNA:RNA)
# RNA: B1 RNA with U26G, G27C, U28A, U30A
# DNA 1: CAATCTGAATTCCGGTCTCCC
# DNA 2: TGGTGGCTACGACGGGATT
# B26: CCUGAAA (DNA:RNA)
# RNA: GGGAGACCGGAAUUCAGAUUGUCCCCUGAAAUUAAAUCCCGUCGUAGCCACCA
# DNA 1: CAATCTGAATTCCGGTCTCCC
# DNA 2: TGGTGGCTACGACGGGATT
# B27: ACUUUAU (DNA:RNA)
# RNA: B1 RNA with U26C, G27U, C29U, U30A
# DNA 1: CAATCTGAATTCCGGTCTCCC
# DNA 2: TGGTGGCTACGACGGGATT
# B28: CCCUGUU (DNA:RNA)
# RNA: B1 RNA with A25C, U26C, G27C, C29G
# DNA 1: CAATCTGAATTCCGGTCTCCC
# DNA 2: TGGTGGCTACGACGGGATT
# B29: AACUGAU (DNA:RNA)
# RNA: B1 RNA with U26A, G27C, C29G, U30A
# DNA 1: CAATCTGAATTCCGGTCTCCC
# DNA 2: TGGTGGCTACGACGGGATT
# B30: AAUUCUC (DNA:RNA)
# RNA: B1 RNA with U26A, G27U, U31C
# DNA 1: CAATCTGAATTCCGGTCTCCC
# DNA 2: TGGTGGCTACGACGGGATT
# B31: GCUCUUU (DNA:RNA)
# RNA: B1 RNA with A25G, U26C, G27U, U28C, C29U
# DNA 1: CAATCTGAATTCCGGTCTCCC
# DNA 2: TGGTGGCTACGACGGGATT
# Target: T1, RBFOX1 RRM RbFoxmut (Fox-RRM*)
# Experiment: EMSA; HiTS-Eq, 1 nM pool, 10 min; buffer printed only for the single-RNA assays: 10 mM Tris pH 7.5, 150 mM NaCl, 3.4 mM EDTA, 0.001% NP-40, 30 C
# Conditions: tags: His6 N-terminal (pET28a); label: 5' 32P
# Outline: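 Relative association constants, normalised to the cognate motif, were derived by comparing read counts of each RNA species with those of the control reaction. The RNA sequenced was the free fraction, separated by 8% native PAGE after a 10 min equilibration in 50 µL of 1 nM 5′-radiolabelled RNA (7 randomized nucleotides) with increasing concentrations of purified wild-type or mutant RbFox RRM.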
row,Binder,binding signal
1,B1,0.0916 KA relative to UGCAUGU
2,B2,0.0914 KA relative to UGCAUGU
3,B3,0.0861 KA relative to UGCAUGU
4,B4,0.077 KA relative to UGCAUGU
5,B5,0.16 KA relative to UGCAUGU
6,B6,0.0839 KA relative to UGCAUGU
7,B7,0.0711 KA relative to UGCAUGU
8,B8,0.0817 KA relative to UGCAUGU
9,B9,0.14 KA relative to UGCAUGU
10,B10,0.0906 KA relative to UGCAUGU
11,B11,0.161 KA relative to UGCAUGU
12,B12,0.0927 KA relative to UGCAUGU
13,B13,0.106 KA relative to UGCAUGU
14,B14,0.0792 KA relative to UGCAUGU
15,B15,0.0721 KA relative to UGCAUGU
16,B16,0.084 KA relative to UGCAUGU

row,Binder,binding signal
1,B17,0.091 KA relative to UGCAUGU
2,B18,0.0896 KA relative to UGCAUGU
3,B19,0.0669 KA relative to UGCAUGU
4,B20,0.0858 KA relative to UGCAUGU
5,B21,0.117 KA relative to UGCAUGU
6,B22,0.098 KA relative to UGCAUGU
7,B23,0.0814 KA relative to UGCAUGU
8,B24,0.0473 KA relative to UGCAUGU
9,B25,0.0715 KA relative to UGCAUGU
10,B26,0.0608 KA relative to UGCAUGU
11,B27,0.135 KA relative to UGCAUGU
12,B28,0.102 KA relative to UGCAUGU
13,B29,0.0668 KA relative to UGCAUGU
14,B30,0.0696 KA relative to UGCAUGU
15,B31,0.0599 KA relative to UGCAUGU
